According to the supplement of paper PMC8728848:
Some of the results follow.

Tests used:
Assay in all cases: glycan array binding signal (z-score within array); higher = stronger binding
Settings in all cases: glycan notation: IUPAC condensed, linker removed
[1] = molecular target: Neu5Ac(a2-6)Gal(b1-4)GlcNAc(b1-2)Man(a1-3)[Neu5Ac(a2-3)Gal(b1-4)GlcNAc(b1-2)Man(a1-6)]Man(b1-4)GlcNAc(b1-4)GlcNAc
Summary of the method: (§1)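 Glycan array data came from 3228 arrays in the Consortium for Functional Glycomics database, and only arrays with an available protein sequence were kept. Glycan names were put into IUPAC-condensed notation, and columns mapping to the same glycan were averaged. The binding signal is a within-array Z-score, averaged across arrays of one protein sequence run at different concentrations or buffers and across linkers. A negative Z-score can be read as non-binding.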

[2] = molecular target: Neu5Ac(a2-6)Gal(b1-4)GlcNAc(b1-2)Man(a1-3)[Neu5Ac(a2-6)Gal(b1-4)GlcNAc(b1-2)Man(a1-6)]Man(b1-4)GlcNAc(b1-4)GlcNAc
Summary of the method: as §1

[3] = molecular target: Neu5Ac(a2-6)Gal(b1-4)GlcNAc(b1-2)Man(a1-3)[Neu5Ac(a2-6)Gal(b1-4)GlcNAc(b1-2)Man(a1-6)]Man(b1-4)GlcNAc(b1-4)[Fuc(a1-6)]GlcNAc
Summary of the method: as §1

[4] = molecular target: Neu5Ac(a2-6)Gal(b1-4)GlcNAc(b1-2)Man(a1-6)Man(b1-4)GlcNAc(b1-4)GlcNAc
Summary of the method: as §1

[5] = molecular target: Neu5Ac(a2-6)Gal(b1-4)GlcNAc(b1-2)Man(a1-6)[Gal(b1-4)GlcNAc(b1-2)Man(a1-3)]Man(b1-4)GlcNAc(b1-4)GlcNAc
Summary of the method: as §1

[6] = molecular target: Neu5Ac(a2-6)Gal(b1-4)GlcNAc(b1-2)Man(a1-6)[GlcNAc(b1-2)Man(a1-3)]Man(b1-4)GlcNAc(b1-4)GlcNAc
Summary of the method: as §1

[7] = molecular target: Neu5Ac(a2-6)Gal(b1-4)GlcNAc(b1-2)Man(a1-6)[Man(a1-3)]Man(b1-4)GlcNAc(b1-4)GlcNAc
Summary of the method: as §1

[8] = molecular target: Neu5Ac(a2-6)Gal(b1-4)GlcNAc(b1-2)[Neu5Ac(a2-6)Gal(b1-4)GlcNAc(b1-4)]Man(a1-3)[GlcNAc(b1-4)][Neu5Ac(a2-6)Gal(b1-4)GlcNAc(b1-2)[Neu5Ac(a2-6)Gal(b1-4)GlcNAc(b1-6)]Man(a1-6)]Man(b1-4)GlcNAc(b1-4)GlcNAc
Summary of the method: as §1

[9] = molecular target: Neu5Ac(a2-6)Gal(b1-4)GlcNAc(b1-2)[Neu5Ac(a2-6)Gal(b1-4)GlcNAc(b1-4)]Man(a1-3)[GlcNAc(b1-4)][Neu5Ac(a2-6)Gal(b1-4)GlcNAc(b1-4)Man(a1-6)]Man(b1-4)GlcNAc(b1-4)GlcNAc
Summary of the method: as §1

[10] = molecular target: Neu5Ac(a2-6)Gal(b1-4)GlcNAc(b1-2)[Neu5Ac(a2-6)Gal(b1-4)GlcNAc(b1-6)]Man(a1-6)[Neu5Ac(a2-6)Gal(b1-4)GlcNAc(b1-2)Man(a1-3)][GlcNAc(b1-4)]Man(b1-4)GlcNAc(b1-4)GlcNAc
Summary of the method: as §1

[11] = molecular target: Neu5Ac(a2-6)Gal(b1-4)GlcNAc(b1-3)Gal(b1-3)GlcNAc
Summary of the method: as §1

[12] = molecular target: Neu5Ac(a2-6)Gal(b1-4)GlcNAc(b1-3)Gal(b1-4)GlcNAc
Summary of the method: as §1

[13] = molecular target: Neu5Ac(a2-6)Gal(b1-4)GlcNAc(b1-3)Gal(b1-4)GlcNAc(b1-2)Man(a1-3)[Neu5Ac(a2-6)Gal(b1-4)GlcNAc(b1-3)Gal(b1-4)GlcNAc(b1-2)Man(a1-6)]GalNAc
Summary of the method: as §1

[14] = molecular target: Neu5Ac(a2-6)Gal(b1-4)GlcNAc(b1-3)Gal(b1-4)GlcNAc(b1-3)Gal(b1-4)GlcNAc
Summary of the method: as §1

[15] = molecular target: Neu5Ac(a2-6)Gal(b1-4)GlcNAc(b1-3)Gal(b1-4)GlcNAc(b1-3)Gal(b1-4)GlcNAc(b1-2)Man(a1-3)[Neu5Ac(a2-6)Gal(b1-4)GlcNAc(b1-3)Gal(b1-4)GlcNAc(b1-3)Gal(b1-4)GlcNAc(b1-2)Man(a1-6)]GalNAc
Summary of the method: as §1

[16] = molecular target: Neu5Ac(a2-6)Gal(b1-4)GlcNAc(b1-3)Gal(b1-4)GlcNAc(b1-3)GalNAc
Summary of the method: as §1

[17] = molecular target: Neu5Ac(a2-6)Gal(b1-4)GlcNAc(b1-3)Gal(b1-4)GlcNAc(b1-3)[Neu5Ac(a2-6)Gal(b1-4)GlcNAc(b1-3)Gal(b1-4)GlcNAc(b1-6)]GalNAc
Summary of the method: as §1

[18] = molecular target: Neu5Ac(a2-6)Gal(b1-4)GlcNAc(b1-3)Gal(b1-4)GlcNAc(b1-6)[Gal(b1-3)]GalNAc
Summary of the method: as §1

[19] = molecular target: Neu5Ac(a2-6)Gal(b1-4)GlcNAc(b1-3)Gal(b1-4)[Fuc(a1-3)]GlcNAc(b1-3)Gal(b1-4)[Fuc(a1-3)]GlcNAc
Summary of the method: as §1

[20] = molecular target: Neu5Ac(a2-6)Gal(b1-4)GlcNAc(b1-3)GalNAc
Summary of the method: as §1

[21] = molecular target: Neu5Ac(a2-6)Gal(b1-4)GlcNAc(b1-3)[Neu5Ac(a2-6)Gal(b1-4)GlcNAc(b1-6)]GalNAc
Summary of the method: as §1

[22] = molecular target: Neu5Ac(a2-6)Gal(b1-4)GlcNAc(b1-6)GalNAc
Summary of the method: as §1

[23] = molecular target: Neu5Ac(a2-6)Gal(b1-4)GlcNAc(b1-6)[Gal(b1-3)GlcNAc(b1-3)]Gal(b1-4)Glc
Summary of the method: as §1

[24] = molecular target: Neu5Ac(a2-6)Gal(b1-4)GlcNAc(b1-6)[Gal(b1-3)]GalNAc
Summary of the method: as §1

[25] = molecular target: Neu5Ac(a2-6)Gal(b1-4)GlcNAc6S
Summary of the method: as §1

Neu5Ac(a2-6)GalNAc = molecular target: Neu5Ac(a2-6)GalNAc
Summary of the method: as §1

[26] = molecular target: Neu5Ac(a2-6)GalNAc(b1-4)GlcNAc
Summary of the method: as §1

[27] = molecular target: Neu5Ac(a2-6)GalNAc(b1-4)GlcNAc6S
Summary of the method: as §1

[28] = molecular target: Neu5Ac(a2-6)GlcNAc(b1-4)GlcNAc
Summary of the method: as §1

[29] = molecular target: Neu5Ac(a2-6)GlcNAc(b1-4)GlcNAc(b1-4)GlcNAc
Summary of the method: as §1

Neu5Ac(a2-8)Neu5Ac = molecular target: Neu5Ac(a2-8)Neu5Ac
Summary of the method: as §1

B1: OVGAL11 (Ovis aries), AAF64320 (protein)
chain: MDSLPNPYLQSVSLTVCYMVKIKANLLSAFGKNPELQVDFGTGTGQGGNIPFRFWYCDGMVVMNTFTDGSWQKEEKVLTDAFVPGQPFELQFLVLEKEYQVFVKNKPICQFAHRLPLQSVKMLDVRGDIVLTSVDTL
glycan array binding signal (z-score) [1]: -0.08
glycan array binding signal (z-score) [2]: -0.138
glycan array binding signal (z-score) [3]: -0.063
glycan array binding signal (z-score) [4]: -0.084
glycan array binding signal (z-score) [5]: -0.084
glycan array binding signal (z-score) [6]: -0.051
glycan array binding signal (z-score) [7]: -0.022
glycan array binding signal (z-score) [8]: -0.059
glycan array binding signal (z-score) [9]: -0.105
glycan array binding signal (z-score) [10]: -0.121
glycan array binding signal (z-score) [11]: -0.089
glycan array binding signal (z-score) [12]: -0.125
glycan array binding signal (z-score) [13]: -0.062
glycan array binding signal (z-score) [14]: -0.148
glycan array binding signal (z-score) [15]: -0.084
glycan array binding signal (z-score) [16]: -0.065
glycan array binding signal (z-score) [17]: -0.113
glycan array binding signal (z-score) [18]: -0.092
glycan array binding signal (z-score) [19]: -0.12
glycan array binding signal (z-score) [20]: -0.082
glycan array binding signal (z-score) [21]: -0.098
glycan array binding signal (z-score) [22]: -0.105
glycan array binding signal (z-score) [23]: -0.092
glycan array binding signal (z-score) [24]: -0.111
glycan array binding signal (z-score) [25]: -0.319
glycan array binding signal (z-score) (Neu5Ac(a2-6)GalNAc): -0.174
glycan array binding signal (z-score) [26]: -0.325
glycan array binding signal (z-score) [27]: -0.112
glycan array binding signal (z-score) [28]: -0.131
glycan array binding signal (z-score) [29]: -0.046
glycan array binding signal (z-score) (Neu5Ac(a2-8)Neu5Ac): -0.207
